Data reported in the supplement of paper PMC6206098.
± gives the uncertainty stated by the source. The sequences are guide strands of siRNAs; only the seed at positions 2 to 7 varies.

Tests used:
3LL = test: cell viability relative to siNT1 control; higher = less toxic; conditions: concentration: 10 nM; 96 h; Mus musculus;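 note: Luminescence-based viability of cells reverse transfected in 384-well plates with lipid-complexed siRNAs built on a non-toxic 19mer backbone whose passenger strand carries 2′-O-methyl groups at positions 1 and 2, triplicates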
M565 = test: cell viability relative to lipid-only control; HeyA8 human ovarian and H460 human lung cancer; M565 mouse liver and 3LL mouse lung cancer; siNT1 is a non-toxic control siRNA; higher = less toxic; conditions: concentration: 10 nM; 96 h; Mus musculus
HeyA8 = test: as above; conditions: concentration: 10 nM; 96 h; Homo sapiens
H460 = test: as above; conditions: concentration: 10 nM; 96 h; Homo sapiens
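Throughout, for cell viability relative to lipid-only control: reverse lipid transfection in 384-well plates, in triplicate, of duplexes on a non-toxic 19mer backbone with passenger strand 2′-O-methylated at positions 1 and 2, luminescence viability read-out.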

Row | Sequence | cell viability (3LL) [%] | cell viability (M565) [%] | cell viability (HeyA8) [%] | cell viability (H460) [%]
1 | UAUAUCUACAUGUAAACCAAA | 90.8 ± 12 | 85.4 ± 11 | 91.6 ± 15 | 86.6 ± 15
2 | UUACAUAACAUGUAAACCAAA | 103 ± 6.7 | 91.9 ± 6.4 | 94.8 ± 1.4 | 58.3 ± 4
3 | UGGUACUACAUGUAAACCAAA | 49.6 ± 8.3 | 23.2 ± 3.7 | 33.1 ± 3.8 | 39.9 ± 5.4
4 | UGCGUUAACAUGUAAACCAAA | 97.2 ± 13 | 76.83 ± 0.6 | 95.1 ± 12 | 89 ± 11
5 | UGUCUAAACAUGUAAACCAAA | 93 ± 26 | 69.8 ± 5.6 | 80 ± 7.6 | 60.1 ± 5.1
6 | UCUCUGCACAUGUAAACCAAA | 33.3 ± 1.5 | 44 ± 3.4 | 37.6 ± 4.9 | 29.9 ± 5.9
7 | UGUGAGAACAUGUAAACCAAA | 76.6 ± 9.5 | 10.7 ± 2.3 | 51.9 ± 2.2 | 45.3 ± 3.2
8 | UGGUAACACAUGUAAACCAAA | 59 ± 4 | 43.1 ± 9 | 9.32 ± 1.6 | 48.3 ± 5.8
9 | UCCGGAGACAUGUAAACCAAA | 104 ± 15 | 60.8 ± 11 | 74 ± 12 | 61.7 ± 11
10 | UCUCUUUACAUGUAAACCAAA | 96.5 ± 11 | 81.1 ± 6.2 | 78.5 ± 2.2 | 48 ± 5.3
11 | UUGCGCUACAUGUAAACCAAA | 45.8 ± 5.1 | 34.6 ± 4.4 | 90.8 ± 11 | 105 ± 8.6
12 | UCCAGUCACAUGUAAACCAAA | 59.3 ± 10 | 10.3 ± 1.1 | 17.7 ± 3.8 | 49.3 ± 0.99
13 | UGUGCAUACAUGUAAACCAAA | 38.3 ± 13 | 39.4 ± 2.1 | 57.2 ± 3.1 | 79.8 ± 9.4
14 | UUGUGUCACAUGUAAACCAAA | 21.9 ± 2.4 | 24.3 ± 6.3 | 50.7 ± 5.9 | 54.5 ± 13
15 | UUAGUGCACAUGUAAACCAAA | 54.8 ± 3.1 | 130 ± 6.5 | 73.3 ± 1.9 | 79.5 ± 9.2
16 | UAACGUUACAUGUAAACCAAA | 96.8 ± 11 | 115 ± 20 | 90 ± 3.2 | 62.3 ± 4.8
17 | UCGCGCAACAUGUAAACCAAA | 96.7 ± 16 | 81.5 ± 13 | 79 ± 1.8 | 93.4 ± 13
18 | UCUCAAAACAUGUAAACCAAA | 102 ± 15 | 75.1 ± 12 | 91.2 ± 5.2 | 39.5 ± 3.1
19 | UUCACCUACAUGUAAACCAAA | 20.3 ± 7.3 | 71.9 ± 5.5 | 69 ± 7.8 | 63.1 ± 12
20 | UUGCACCACAUGUAAACCAAA | 14.6 ± 2.4 | 44.9 ± 15 | 41.9 ± 5.8 | 29 ± 3.2
21 | UCCGCCCACAUGUAAACCAAA | 13.3 ± 5.5 | 19.7 ± 0.9 | 23 ± 6.3 | 51.2 ± 5.8
22 | UUGCAUGACAUGUAAACCAAA | 80.9 ± 5.1 | 53.6 ± 12 | 72.4 ± 3.9 | 55 ± 7
23 | UGACACGACAUGUAAACCAAA | 61.7 ± 6.8 | 42 ± 16 | 78.5 ± 14 | 52.4 ± 8
24 | UACCAUCACAUGUAAACCAAA | 33.3 ± 5.2 | 16.7 ± 6.3 | 45.4 ± 0.94 | 48.9 ± 3.9
25 | UAGAAAUACAUGUAAACCAAA | 77.1 ± 3.8 | 62.3 ± 1 | 56.6 ± 2.6 | 62.5 ± 12
26 | UCGUCGUACAUGUAAACCAAA | 67.4 ± 19 | 50.8 ± 4.3 | 45.5 ± 6.3 | 59.7 ± 4.3
27 | UAGUUCAACAUGUAAACCAAA | 74.4 ± 7.9 | 26.9 ± 2.5 | 41 ± 3.9 | 48.8 ± 5.6
28 | UGUCUGAACAUGUAAACCAAA | 38.3 ± 4.2 | 18 ± 4.9 | 27.6 ± 3.3 | 36 ± 1.9
29 | UCGCUGGACAUGUAAACCAAA | 63.6 ± 16 | 54.9 ± 1.9 | 11.4 ± 0.76 | 43 ± 5
